Publication PMC10726135
The list shows a part of the results. At the low end of the ranking the order means little. The protein was read in a cell extract, so binding may be indirect.

biological target: T1, HNF4alpha2 (COS-7 nuclear extract) (UniProt P41235); experiment: protein-binding microarray; details: COS-7 nuclear extract on double-stranded Agilent 4x180k PBM; binding buffer, salt, pH and temperature not given; high values mean tight binding; double strand, one strand shown; sequences stand for … in …GCCTAGGGAGATTAGAGTATCGGTCGA
T1 sequence: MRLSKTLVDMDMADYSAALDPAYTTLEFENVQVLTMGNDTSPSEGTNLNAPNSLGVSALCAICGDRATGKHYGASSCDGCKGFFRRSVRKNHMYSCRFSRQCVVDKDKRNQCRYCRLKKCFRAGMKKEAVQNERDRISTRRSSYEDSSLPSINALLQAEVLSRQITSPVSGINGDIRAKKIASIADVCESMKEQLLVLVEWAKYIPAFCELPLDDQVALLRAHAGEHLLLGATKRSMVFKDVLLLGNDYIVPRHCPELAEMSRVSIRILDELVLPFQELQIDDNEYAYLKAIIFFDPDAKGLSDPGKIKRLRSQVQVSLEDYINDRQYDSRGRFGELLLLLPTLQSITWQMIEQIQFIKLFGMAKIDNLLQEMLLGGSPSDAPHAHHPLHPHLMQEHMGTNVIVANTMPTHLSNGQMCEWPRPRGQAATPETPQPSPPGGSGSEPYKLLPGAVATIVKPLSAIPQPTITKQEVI

| Sequence | binding signal (log2 normalized intensity) |
| --- | --- |
| ACCCTTCCCTAAGATTTATCCCAAATGTTT | 0.845 |
| ATGTGCCTGATGGGATGAGAGAGCCCCTGT | 1.6 |
| AACAGCGAACATGAGGAATAAACTTCTGTC | -1.09 |
| CTGGCAGGGAGGAGGGATCAAGCAGGTGAC | -0.731 |
| ACATCAGAAGTTGGACTTTGTACATTCCAA | 7.69 |
| GGGGTGGGGAGGATAGCAGCCCAGCAAAGA | -1.05 |
| TCAGGCCCAGAAACACTGAACCTTGTCCCA | 3.15 |
| TCCGAGCCATTTTGGAGCCGGTGTCAGTTT | 1.47 |
| CCTGAAAGGTAGGCAGAGAGGCTGCTCAGT | -0.927 |
| TGCCTGCAGGAGAGAGCAAAGTCCACGCAT | 6.29 |
| AGCTCTTGCTGGTCAAGCTAAGCACAACTG | -1.19 |
| GCTCTCCCATAAGAATCCTTTTCATTCTTT | 0.393 |
| GGGGCTGGCATGTCTCTGGTCAGGGAGGGC | 0.599 |
| TGTTTATCCTTCAACAATTCTATGAGTAGG | 1.3 |
| TTGGGTGACTTTCTTCCTATGGGATCAAAG | 0.696 |
| ACTTGCCCTCAGTAAAGGACAAAGTCAACG | 0.532 |
| GGAGGGGAAGAAAGGAATGTGCCTGCAAGT | -1.11 |
| AGTGGGTCTAGGTTCTGGGGTGATTACCCT | 1.62 |
| TGACCTGGTACTATGACCTTTCACCTTTTA | 6.99 |
| ACTCTGGGAGCCCTGGGGTAATAAATAAAG | -0.99 |
| TTTCCAAAGAGCAGCTAGCTCCAGTTGGTT | -0.859 |
| AGCTAATCTAGAGACACTATGTGCATTCCA | -0.978 |
| TTCCCAGCTAAATAAATAACTCTAAGAAAT | -1.12 |
| CTCACGGTAACAGCCGGAGAGGCAAGTATG | -0.495 |

| Sequence | binding signal (log2 normalized intensity) |
| --- | --- |
| ACTCAAAGGTCAAATGACAGAAGCAGGACT | 1.31 |
| AGAGTCTGACAGAACTAAGCTGTTGCGTAA | -1.12 |
| GACATGAAGGACATAAATGTGCCCAGATAA | 0.583 |
| CTTGTCTGATAAGATTCAGAACCCATTAAT | -0.701 |
| CCCATCCATTTCCCATCCCCAGAGCCCCCT | 5.39 |
| AAGACACAGAGAAAAAGAAGGTTGGGCGTT | -1.18 |
| CATCTAAGACTTTATTTGAAGAAATGGTGG | 1.59 |
| TGTCTTCCTCTCTGAAGGATTTAAATGGAA | 1.4 |
| GAATTGGAAGGCAAAGTTCAACCCTGAATG | 1.31 |
| AGGTGAATCAACGATAAGGGATGATAAGGC | -1.15 |
| ATAAACTTCCAGCCATTTTGTGAGCTCTGA | -0.884 |
| GAGGGAAAGGTCAAGAGAATTACAAACAGC | -0.939 |
| AAACGCAATTGCCCTACAGCTCCTGAGTCC | -1.19 |
| TGAGAACTGGAGCAAAGGTCACTCTTGCTA | 4.63 |
| TCCACTGATAAAGTTCTTTTGTGTGTTTAC | 2.2 |
| AAAGGGTGAAATAGGAGGATTTTATTCAGG | -0.947 |
| CTTGGTATGTCTGATGAATAGAAAGAGGTC | 1.83 |
| ATCTACAGATCTGGAGCCAGCAAGGACTTT | 3.2 |
| CAAACTCACCTGGAGAAGCAGAAGCTGCAC | -1.15 |
| CCCAGCATGTTTGGGTCACAATCACAAATG | 0.895 |
| TGCAGAAAAACAGGTTCTGCAACACTTTCT | -0.768 |
| GTGCTTAGCTATTTCGTTGAATGCTGAACT | 1.6 |
| CCTTGACCTCCTGGGCCCAAGTGCTCCTCC | 0.173 |
| GCCACAACTGAGTATTTAGCTTCCTCCCTT | -0.317 |

| Sequence | binding signal (log2 normalized intensity) |
| --- | --- |
| TATATTCATAACACTTGTATGACCTTTGTT | 5.39 |
| CACCTGTGTCAACATGGACTTTGTTGTTTG | 4.33 |
| AGCAACAGACTGCTGTGTTACTAGAGCCAA | -1.05 |
| ACAGGATGCCTGAGTAATTACTATAAATGC | -0.706 |
| GATTGGACTTTGGCCTGTGAATCCACATTC | 5.98 |
| CCAACCTGGCCTGTTTGATCTGGTTTTTGT | 1.72 |
| GAACCGTCTGCCCAGAGCGGCAGCGCCTCC | -0.917 |
| GTGTCAATTCCAAAGTTCAAGTAGAGCTTC | 3.25 |
| TAAGACTAACCTTTGACCATCCACGGATGC | 4.62 |
| TCCACAGTAAAACATACTGGTGGTTTCACA | -0.526 |
| CACCTTCAGTCACACTGTTTGCGCAAACTA | -0.824 |
| GGATAATGATAAAGAGATTGGACTTTGGCC | 8.99 |
| TACTGAAAAGTCTACCTTTGGCCTGGGGAT | 2.21 |
| TGCAAATGGATGAATTTTATCACTCCATCA | -1.07 |
| ATAGCAAACACGATTGGATGGAAGGTCCTT | 0.907 |
| TTGAACCTTGGGTCTGTAATCTCACAACTC | 1.47 |
| ACACAGAGGAGCGACCCAGGCAGCCCCTTT | -1.06 |
| AGAAACAGAAAGTCCGGGGGCCAGTTCACT | -1.24 |
| TCTGTGAAGGTCAGGAGCCCCACAGAGCAA | 2.55 |
| TCTTCTTCTGGGGACTTCGGTCTTTTTTCT | 2.18 |
| GCTTGTTGGTTCAAGAGAAATGTTATCTCA | 1.23 |
| TGTGTTTCCACAAACACAGATCAGATATGA | -0.462 |
| TTTTTCTTGGGTGTATGGGTATAGGCGCGC | 1.45 |
| GTGGAATTTGTGCTTATTTCCCATCAAGGA | 0.134 |

| Sequence | binding signal (log2 normalized intensity) |
| --- | --- |
| GAGGCAGTGGCCTGAGGCAGCCAGTGAGTG | -0.968 |
| AAGCAACACTTTCTGACCTTTAAGCACCCA | 3.37 |
| CCCGAAGGGTAGGAGAAGCTGGAAGGACAG | -1.12 |
| GAAGCAGGCAGGCAGCTTCCAGGTGACAGT | -1.1 |
| GAAGCTGTGTAACCCTGGAGCCATAAATCC | -1.09 |
| ATGGCATTTAGGGTATTTCCTAAACCAACT | -1.18 |
| CTCTGAGATGGACTCCAGTGATCTTATCGC | 1.84 |
| AGATGAGGAATCTGTTGAGAACTGGAGCAA | -1.17 |
| ACTCTCTCATTCTGATATGCACTGTCAGTT | 1.06 |
| CCTGCACCTGGAGCCCTTAGGGTCAATGGG | 2.53 |
| GTTTCTTTCCCTGGGGTCAATAGTTGTGTA | 3.31 |
| GACAAGAGTGACCTCTGGTCATTCAATGTT | 3.05 |
| GTGACTTCCTTCCAAAGGTCACAGTAGGGA | 4.16 |
| TGTTTGCTTTTCTTATTTACCGAAATGTGG | 2.1 |
| AGGTGACCCTTGAGCTAAGTCCCAAGGGAT | 1.06 |
| GTTATTTGCTAAAACTGGGCTGGGTAAGCC | -0.373 |
| GAGAGAAAAAATCAGAGAGCAAAGGTGATC | 1.63 |
| TACATTTTGCTCTGTTGTGTCAAAGGTCAC | 6.29 |
| TGAAGAAACCAACCCTGCCAAAGGTTAAAA | 1.64 |
| TGGTACTTTGAGCCAGTAAGTCTAGGGGTG | 0.988 |
| ATGTGCCCTTTGTACCTGGGGCAAACATCA | 4.38 |
